According to article PMC5062570 (Nature Communications, 2016):

How the values were obtained:
[1] = target: PF-7802-labelled proteins in ARPE-19 cells (Homo sapiens, UniProt P10155); conditions: TROVE2 60 kDa SS-A/Ro ribonucleoprotein (P10155)
[2] = target: PF-7802-labelled proteins in ARPE-19 cells (Homo sapiens, UniProt Q16695); conditions: protein HIST3H3 Histone H3.1t (Q16695); one column per replicate
[3] = target: PF-7802-labelled proteins in ARPE-19 cells (Homo sapiens, UniProt P24844); conditions: protein MYL9 Myosin regulatory light polypeptide 9 (P24844); replicates in separate columns
UniProt P24844, sequence (P24844 whole entry): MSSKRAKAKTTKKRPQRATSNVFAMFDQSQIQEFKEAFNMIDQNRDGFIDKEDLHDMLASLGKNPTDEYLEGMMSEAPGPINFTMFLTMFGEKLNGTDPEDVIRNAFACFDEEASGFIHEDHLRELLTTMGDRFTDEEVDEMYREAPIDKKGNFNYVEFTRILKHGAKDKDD

[4] = target: PF-7802-labelled proteins in ARPE-19 cells (Homo sapiens, UniProt P23634)
UniProt P23634, sequence (P23634 whole entry): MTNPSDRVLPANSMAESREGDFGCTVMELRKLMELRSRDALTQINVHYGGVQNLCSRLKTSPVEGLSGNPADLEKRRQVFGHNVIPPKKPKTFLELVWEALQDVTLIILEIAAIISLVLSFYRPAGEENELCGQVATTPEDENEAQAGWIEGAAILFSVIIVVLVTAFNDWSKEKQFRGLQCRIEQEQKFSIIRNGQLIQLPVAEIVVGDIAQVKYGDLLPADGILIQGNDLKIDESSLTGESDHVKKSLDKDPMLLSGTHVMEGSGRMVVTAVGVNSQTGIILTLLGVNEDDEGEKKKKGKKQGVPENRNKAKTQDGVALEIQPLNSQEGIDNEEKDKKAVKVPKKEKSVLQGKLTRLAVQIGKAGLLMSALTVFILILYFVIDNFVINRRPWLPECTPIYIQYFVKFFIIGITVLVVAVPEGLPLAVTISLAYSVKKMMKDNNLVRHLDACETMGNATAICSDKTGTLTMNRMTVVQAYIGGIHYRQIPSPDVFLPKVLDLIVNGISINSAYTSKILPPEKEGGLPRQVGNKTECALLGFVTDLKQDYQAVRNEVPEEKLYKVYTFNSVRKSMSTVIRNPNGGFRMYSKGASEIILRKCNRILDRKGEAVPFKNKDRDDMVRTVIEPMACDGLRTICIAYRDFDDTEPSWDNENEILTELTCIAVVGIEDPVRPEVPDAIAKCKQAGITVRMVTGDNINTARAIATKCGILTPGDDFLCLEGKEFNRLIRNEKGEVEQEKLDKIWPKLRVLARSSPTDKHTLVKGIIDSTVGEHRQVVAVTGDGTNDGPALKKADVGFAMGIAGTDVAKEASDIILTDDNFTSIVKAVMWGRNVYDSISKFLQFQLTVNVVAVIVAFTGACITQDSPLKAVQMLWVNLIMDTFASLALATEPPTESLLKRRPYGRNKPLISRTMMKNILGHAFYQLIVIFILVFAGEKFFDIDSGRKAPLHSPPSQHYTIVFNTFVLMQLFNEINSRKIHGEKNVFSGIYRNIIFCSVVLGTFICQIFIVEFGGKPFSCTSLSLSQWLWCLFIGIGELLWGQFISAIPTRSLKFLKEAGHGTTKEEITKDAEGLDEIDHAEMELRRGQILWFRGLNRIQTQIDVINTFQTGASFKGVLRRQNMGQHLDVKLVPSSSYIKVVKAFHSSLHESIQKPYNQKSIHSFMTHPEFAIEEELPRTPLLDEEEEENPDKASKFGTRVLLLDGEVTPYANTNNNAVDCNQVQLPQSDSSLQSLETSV

[5] = target: PF-7802-labelled proteins in ARPE-19 cells (Homo sapiens, UniProt P00338)
[6] = target: PF-7802-labelled proteins in ARPE-19 cells (Homo sapiens, UniProt P06733); conditions: P06733 ENO1 Alpha-enolase
[7] = target: PF-7802-labelled proteins in ARPE-19 cells (Homo sapiens, UniProt P38606); conditions: protein ATP6V1A V-type proton ATPase catalytic subunit A (P38606)
UniProt P38606, sequence (P38606 whole entry): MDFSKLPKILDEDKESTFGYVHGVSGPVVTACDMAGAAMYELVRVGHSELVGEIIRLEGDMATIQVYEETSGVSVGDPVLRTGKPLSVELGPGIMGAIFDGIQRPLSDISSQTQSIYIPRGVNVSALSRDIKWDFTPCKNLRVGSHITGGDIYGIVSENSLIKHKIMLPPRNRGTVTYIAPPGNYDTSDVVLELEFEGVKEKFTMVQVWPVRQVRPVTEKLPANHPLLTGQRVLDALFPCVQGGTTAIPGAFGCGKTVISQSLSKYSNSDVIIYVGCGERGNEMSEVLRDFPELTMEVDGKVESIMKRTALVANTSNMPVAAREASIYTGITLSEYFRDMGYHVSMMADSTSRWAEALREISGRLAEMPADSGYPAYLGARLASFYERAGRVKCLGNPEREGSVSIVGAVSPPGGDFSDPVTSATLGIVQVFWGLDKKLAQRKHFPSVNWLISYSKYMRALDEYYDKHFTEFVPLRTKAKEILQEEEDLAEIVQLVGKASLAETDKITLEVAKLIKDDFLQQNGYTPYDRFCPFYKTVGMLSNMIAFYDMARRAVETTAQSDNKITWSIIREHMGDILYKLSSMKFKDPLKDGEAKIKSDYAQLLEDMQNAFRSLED

[8] = target: PF-7802-labelled proteins in ARPE-19 cells (Homo sapiens, UniProt Q9BVA1); conditions: TUBB2B Tubulin beta-2B chain (Q9BVA1)
UniProt Q9BVA1, sequence (Q9BVA1 whole entry): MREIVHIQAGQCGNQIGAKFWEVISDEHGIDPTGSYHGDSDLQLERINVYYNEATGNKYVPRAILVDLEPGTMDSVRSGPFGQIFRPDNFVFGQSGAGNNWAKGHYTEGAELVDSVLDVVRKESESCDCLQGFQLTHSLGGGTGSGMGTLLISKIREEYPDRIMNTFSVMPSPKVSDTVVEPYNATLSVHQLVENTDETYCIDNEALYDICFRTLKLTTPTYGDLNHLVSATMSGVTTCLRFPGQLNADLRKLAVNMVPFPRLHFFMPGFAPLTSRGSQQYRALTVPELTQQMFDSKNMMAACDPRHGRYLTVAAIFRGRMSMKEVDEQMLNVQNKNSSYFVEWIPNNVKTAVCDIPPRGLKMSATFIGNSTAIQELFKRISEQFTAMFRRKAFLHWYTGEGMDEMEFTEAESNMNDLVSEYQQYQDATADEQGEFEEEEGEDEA

[9] = target: PF-7802-labelled proteins in ARPE-19 cells (Homo sapiens, UniProt Q9H2U2); conditions: protein PPA2 Inorganic pyrophosphatase 2, mitochondrial, Q9H2U2
[10] = target: PF-7802-labelled proteins in ARPE-19 cells (Homo sapiens, UniProt Q8N1N4); conditions: protein KRT78 Keratin, type II cytoskeletal 78 (Q8N1N4); one column per replicate
[11] = target: PF-7802-labelled proteins in ARPE-19 cells (Homo sapiens, UniProt Q14247); conditions: protein CTTN Src substrate cortactin (Q14247)
UniProt Q14247, sequence (Q14247 whole entry): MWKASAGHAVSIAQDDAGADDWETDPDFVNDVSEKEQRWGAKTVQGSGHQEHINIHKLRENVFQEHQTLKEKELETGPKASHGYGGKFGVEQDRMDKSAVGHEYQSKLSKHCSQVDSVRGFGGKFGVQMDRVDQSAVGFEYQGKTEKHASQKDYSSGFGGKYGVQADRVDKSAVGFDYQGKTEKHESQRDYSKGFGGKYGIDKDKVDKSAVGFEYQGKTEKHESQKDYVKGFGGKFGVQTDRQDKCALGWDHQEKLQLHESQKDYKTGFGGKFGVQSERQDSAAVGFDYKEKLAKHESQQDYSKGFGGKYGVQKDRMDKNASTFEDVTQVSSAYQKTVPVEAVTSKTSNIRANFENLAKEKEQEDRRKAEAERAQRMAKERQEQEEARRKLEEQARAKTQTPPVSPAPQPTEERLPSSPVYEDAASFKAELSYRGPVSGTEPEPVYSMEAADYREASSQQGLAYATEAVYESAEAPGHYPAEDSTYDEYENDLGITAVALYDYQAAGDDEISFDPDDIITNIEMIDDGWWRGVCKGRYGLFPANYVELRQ

[12] = target: PF-7802-labelled proteins in ARPE-19 cells (Homo sapiens, UniProt Q9P0J1); conditions: protein PDP1 [Pyruvate dehydrogenase [acetyl-transferring]]-phosphatase 1, mitochondrial (Q9P0J1); replicates in separate columns
[13] = target: PF-7802-labelled proteins in ARPE-19 cells (Homo sapiens, UniProt P13674); conditions: protein P4HA1 Prolyl 4-hydroxylase subunit alpha-1 (P13674); replicates in separate columns
[14] = target: PF-7802-labelled proteins in ARPE-19 cells (Homo sapiens, UniProt P62820); conditions: protein RAB1A Ras-related protein Rab-1A, P62820
UniProt P62820, sequence (P62820 whole entry): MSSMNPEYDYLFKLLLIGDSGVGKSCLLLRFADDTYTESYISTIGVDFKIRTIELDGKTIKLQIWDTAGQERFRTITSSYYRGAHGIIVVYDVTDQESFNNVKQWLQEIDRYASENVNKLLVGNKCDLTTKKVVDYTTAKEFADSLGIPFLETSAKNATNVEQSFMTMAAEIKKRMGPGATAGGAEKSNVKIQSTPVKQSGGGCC

[15] = target: PF-7802-labelled proteins in ARPE-19 cells (Homo sapiens, UniProt P53985); conditions: SLC16A1 Monocarboxylate transporter 1 (P53985)
UniProt P53985, sequence (P53985 whole entry): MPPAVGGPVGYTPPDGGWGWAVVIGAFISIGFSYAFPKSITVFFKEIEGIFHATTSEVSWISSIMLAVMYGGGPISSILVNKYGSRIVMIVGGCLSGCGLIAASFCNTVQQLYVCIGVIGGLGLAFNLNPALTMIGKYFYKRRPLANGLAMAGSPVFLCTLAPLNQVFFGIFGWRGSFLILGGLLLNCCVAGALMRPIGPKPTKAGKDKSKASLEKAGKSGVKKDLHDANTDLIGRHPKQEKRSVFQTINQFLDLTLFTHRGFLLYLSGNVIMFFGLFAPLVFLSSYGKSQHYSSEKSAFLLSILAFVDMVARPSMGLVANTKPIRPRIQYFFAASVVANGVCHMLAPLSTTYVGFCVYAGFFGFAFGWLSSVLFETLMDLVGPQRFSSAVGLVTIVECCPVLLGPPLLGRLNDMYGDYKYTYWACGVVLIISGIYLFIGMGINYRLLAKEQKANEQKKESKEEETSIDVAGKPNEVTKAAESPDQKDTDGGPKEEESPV

[16] = target: PF-7802-labelled proteins in ARPE-19 cells (Homo sapiens, UniProt Q16527); conditions: protein CSRP2 Cysteine and glycine-rich protein 2 (Q16527)
UniProt Q16527, sequence (Q16527 whole entry): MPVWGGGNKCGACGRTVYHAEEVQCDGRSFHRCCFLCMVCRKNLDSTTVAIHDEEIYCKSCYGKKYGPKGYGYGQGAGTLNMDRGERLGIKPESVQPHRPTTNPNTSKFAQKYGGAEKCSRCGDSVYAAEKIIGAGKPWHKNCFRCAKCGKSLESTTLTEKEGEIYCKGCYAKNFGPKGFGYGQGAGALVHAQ

[17] = target: PF-7802-labelled proteins in ARPE-19 cells (Homo sapiens, UniProt Q01518); conditions: protein CAP1 Adenylyl cyclase-associated protein 1 (Q01518)
UniProt Q01518, sequence (Q01518 whole entry): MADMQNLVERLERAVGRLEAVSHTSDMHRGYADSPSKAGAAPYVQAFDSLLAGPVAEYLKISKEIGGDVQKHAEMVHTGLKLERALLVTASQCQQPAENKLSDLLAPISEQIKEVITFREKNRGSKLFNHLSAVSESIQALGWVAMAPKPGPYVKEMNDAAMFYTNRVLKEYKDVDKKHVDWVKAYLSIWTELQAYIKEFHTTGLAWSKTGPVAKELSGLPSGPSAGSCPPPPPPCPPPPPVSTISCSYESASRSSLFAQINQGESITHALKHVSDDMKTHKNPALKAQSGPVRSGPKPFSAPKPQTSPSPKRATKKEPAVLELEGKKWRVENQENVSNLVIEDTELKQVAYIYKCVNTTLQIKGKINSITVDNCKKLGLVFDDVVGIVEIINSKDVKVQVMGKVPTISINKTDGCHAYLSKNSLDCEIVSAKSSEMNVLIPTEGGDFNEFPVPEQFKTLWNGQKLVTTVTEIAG

[18] = tested on: PF-7802-labelled proteins in ARPE-19 cells
[19] = target: PF-7802-labelled proteins in ARPE-19 cells (Homo sapiens, UniProt P49755); conditions: TMED10 Transmembrane emp24 domain-containing protein 10 (P49755)
[20] = target: PF-7802-labelled proteins in ARPE-19 cells (Homo sapiens, UniProt Q6A162); conditions: protein KRT40 Keratin, type I cytoskeletal 40 (Q6A162); one column per replicate
[21] = target: PF-7802-labelled proteins in ARPE-19 cells (Homo sapiens, UniProt Q9NSB2); conditions: protein KRT84 Keratin, type II cuticular Hb4 (Q9NSB2); one column per replicate
UniProt Q9NSB2, sequence (Q9NSB2 whole entry): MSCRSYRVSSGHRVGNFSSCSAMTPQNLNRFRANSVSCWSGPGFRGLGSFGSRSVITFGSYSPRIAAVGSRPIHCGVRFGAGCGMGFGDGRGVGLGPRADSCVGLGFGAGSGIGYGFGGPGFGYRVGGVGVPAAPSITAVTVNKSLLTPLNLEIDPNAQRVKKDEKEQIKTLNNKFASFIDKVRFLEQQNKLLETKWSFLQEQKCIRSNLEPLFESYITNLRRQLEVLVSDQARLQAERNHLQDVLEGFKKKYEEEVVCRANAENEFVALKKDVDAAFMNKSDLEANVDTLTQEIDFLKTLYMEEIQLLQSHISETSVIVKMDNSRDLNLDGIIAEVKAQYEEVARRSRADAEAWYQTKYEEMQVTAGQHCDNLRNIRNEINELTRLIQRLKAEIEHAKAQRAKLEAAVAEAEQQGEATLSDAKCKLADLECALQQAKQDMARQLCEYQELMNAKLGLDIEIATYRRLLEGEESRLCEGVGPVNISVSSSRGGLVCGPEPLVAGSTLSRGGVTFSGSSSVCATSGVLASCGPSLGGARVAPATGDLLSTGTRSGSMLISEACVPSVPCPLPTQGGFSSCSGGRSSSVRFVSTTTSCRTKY

[22] = target: PF-7802-labelled proteins in ARPE-19 cells (Homo sapiens, UniProt Q86UP2); conditions: protein KTN1 Kinectin (Q86UP2); replicates in separate columns
[23] = target: PF-7802-labelled proteins in ARPE-19 cells (Bos taurus, UniProt P02668); conditions: protein no description (P02668); replicates in separate columns

Q: With CNC1CCN(C(=O)C[C@@H](Cc2ccccc2)C(=O)N[C@@H](CSC)C(=O)N[C@@H](CC2CCCCC2)[C@@H](O)C(=O)OC(C)C)CC1 [CP-108671, reference compound] as the compound, how does the “Median SILAC Ratio (Heavy/Light)” value [1] read?
A: Its value is 1.799.

Q: What about the “Median SILAC Ratio (Heavy/Light)” value [2] of the same compound?
A: The value was 1.079.

Q: What about the “Median SILAC Ratio (Heavy/Light)” value [3] of the same compound?
A: The value was 1.817.

Q: What about the “SILAC ratio (DMSO/CP-108671)” value ([4]; P23634 ATP2B4 Plasma membrane calcium-transporting ATPase 4) of the same compound?
A: Its value is 0.75.

Q: And the “Median SILAC Ratio (Heavy/Light)” value ([4]; protein ATP2B4 Plasma membrane calcium-transporting ATPase 4 (P23634))?
A: The value was 1.341.

Q: And the “SILAC ratio (DMSO/CP-108671)” value ([5]; P00338 LDHA L-lactate dehydrogenase A chain)?
A: The value was 0.51.

Q: What about the “Median SILAC Ratio (Heavy/Light)” value ([5]; protein LDHA L-lactate dehydrogenase A chain (P00338), replicates in separate columns) of the same compound?
A: The value was 1.993 and 0.8337.

Q: What about the “SILAC ratio (DMSO/CP-108671)” value [6] of the same compound?
A: Its value is 0.50.

Q: And the “Median SILAC Ratio (Heavy/Light)” value [7]?
A: Its value is 2.128.

Q: What does the source list for Cc1cc([C@H]2C[C@H]3[C@@H](C)SC(N)=N[C@@]3(c3ccc(F)cc3F)CO2)on1 [PF-9283]?
A: Median SILAC Ratio (Heavy/Light) [8]: 1.522; Median SILAC Ratio (Heavy/Light) [9]: 1.3861; Median SILAC Ratio (Heavy/Light) [10]: 10.761; Median SILAC Ratio (Heavy/Light) [11]: 0.6821; Median SILAC Ratio (Heavy/Light) [12]: 1.312; Median SILAC Ratio (Heavy/Light) [13]: 1.96; Median SILAC Ratio (Heavy/Light) [14]: 0.9161; Median SILAC Ratio (Heavy/Light) [15]: 1.26; Median SILAC Ratio (Heavy/Light) [16]: 1.668; Median SILAC Ratio (Heavy/Light) [17]: 1.107 and 1.058; Median SILAC Ratio (Heavy/Light) [18]: 4.83; Median SILAC Ratio (Heavy/Light) ([18]; UBBP4 Protein UBBP4 (J3QRK5)): 2.167; Median SILAC Ratio (Heavy/Light) ([18]; Uncharacterized protein (D6R9H1)): 1.443; Median SILAC Ratio (Heavy/Light) ([18]; Uncharacterized protein (E7EMT2)): 3.222; Median SILAC Ratio (Heavy/Light) ([18]; Uncharacterized protein (E9PLN8)): 0.967; Median SILAC Ratio (Heavy/Light) ([18]; Uncharacterized protein (F8VZW7)): 1.734; Median SILAC Ratio (Heavy/Light) ([18]; Uncharacterized protein (H0YGG7)): 0.6905; Median SILAC Ratio (Heavy/Light) ([18]; Uncharacterized protein (H3BQZ7)): 1.385; Median SILAC Ratio (Heavy/Light) ([18]; Uncharacterized protein (I3L1M0)): 217.312; Median SILAC Ratio (Heavy/Light) ([18]; protein HLA-A HLA class I histocompatibility antigen, A-2 alpha chain (P01892), one column per replicate): 0.8177; Median SILAC Ratio (Heavy/Light) ([18]; protein HLA-B HLA class I histocompatibility antigen, B-8 alpha chain (P30460), one column per replicate): 1.51; Median SILAC Ratio (Heavy/Light) ([18]; protein HLA-B HLA class I histocompatibility antigen, B-14 alpha chain (P30462), one column per replicate): 1.51; Median SILAC Ratio (Heavy/Light) ([18]; protein HLA-B HLA class I histocompatibility antigen, B-35 alpha chain (P30685), one column per replicate): 1.465; Median SILAC Ratio (Heavy/Light) ([18]; protein HLA-B HLA class I histocompatibility antigen, B-37 alpha chain (P18463), one column per replicate): 1.51; Median SILAC Ratio (Heavy/Light) ([18]; protein HLA-B HLA class I histocompatibility antigen, B-38 alpha chain (Q95365), one column per replicate): 1.51; Median SILAC Ratio (Heavy/Light) ([18]; protein HLA-B HLA class I histocompatibility antigen, B-46 alpha chain (P30484), one column per replicate): 1.465; Median SILAC Ratio (Heavy/Light) ([18]; protein HLA-B HLA class I histocompatibility antigen, B-51 alpha chain (P18464), one column per replicate): 1.465; Median SILAC Ratio (Heavy/Light) ([18]; protein HLA-B HLA class I histocompatibility antigen, B-54 alpha chain (P30492), one column per replicate): 1.465; Median SILAC Ratio (Heavy/Light) ([18]; protein HLA-B HLA class I histocompatibility antigen, B-57 alpha chain (P18465), one column per replicate): 1.465; Median SILAC Ratio (Heavy/Light) ([18]; protein HLA-B HLA class I histocompatibility antigen, B-58 alpha chain (P10319), one column per replicate): 1.465; Median SILAC Ratio (Heavy/Light) ([18]; protein HLA-B HLA class I histocompatibility antigen, B-59 alpha chain (Q29940), one column per replicate): 1.465; Median SILAC Ratio (Heavy/Light) ([18]; protein HLA-B HLA class I histocompatibility antigen, B-67 alpha chain (Q29836), one column per replicate): 1.51; Median SILAC Ratio (Heavy/Light) ([18]; protein HLA-B HLA class I histocompatibility antigen, B-82 alpha chain (Q29718), one column per replicate): 1.51; Median SILAC Ratio (Heavy/Light) ([18]; protein HLA-C HLA class I histocompatibility antigen, Cw-14 alpha chain (F8VZB9), one column per replicate): 0.1709; Median SILAC Ratio (Heavy/Light) ([18]; protein HLA-C HLA class I histocompatibility antigen, Cw-17 alpha chain (Q95604), one column per replicate): 0.8177; Median SILAC Ratio (Heavy/Light) ([18]; protein LOC440131 Similar to bA90M5.1 (Novel protein) (Q5TAE0), replicates in separate columns): 1.214; Median SILAC Ratio (Heavy/Light) ([18]; protein RBM14/RBM4 fusion Transcriptional coactivator CoAZ, B0LM41): 1.076; Median SILAC Ratio (Heavy/Light) [19]: 1.189; Median SILAC Ratio (Heavy/Light) [20]: 81.831; Median SILAC Ratio (Heavy/Light) [21]: 10.761; Median SILAC Ratio (Heavy/Light) [22]: 1.726; Median SILAC Ratio (Heavy/Light) [23]: 14.9263

Values joined by “and” are separate entries in the source; they are usually repeats but may differ in a detail not shown here. Identical values can stand only once. Like-named read-outs stand apart in the source and are kept apart here.
